PubChem BioAssay AID624417 (National Center for Advancing Translational Sciences (NCATS), 2012)
In all, about 410,000 compounds went through this assay and about 6,400 (1.6%) were called active. Inconclusive means that the source gave no clear call. Such entries were picked first, then a sample of the others. The call rests on the fitted dose curve; in most records, active means well fitted inhibition curve with a large enough effect; inconclusive means small, poorly fitted or top-dose-only effect; inactive means no such curve, though single readings can be large or run the other way. No potency is given beside an inconclusive call; the fits are too rough.

The compounds below were run against Glucagon-like peptide 1 receptor (Homo sapiens) (UniProt P43220) (assay: qHTS of GLP-1 Receptor Inverse Agonists (Inhibition Mode)). Details: HEK293 GLP-1R CRE-luciferase, luminescence, 24 h, GLP-1R form is constitutively active; series mostly up to 38.3 µM.
Sequence of UniProt P43220 (P43220 whole entry, looked up): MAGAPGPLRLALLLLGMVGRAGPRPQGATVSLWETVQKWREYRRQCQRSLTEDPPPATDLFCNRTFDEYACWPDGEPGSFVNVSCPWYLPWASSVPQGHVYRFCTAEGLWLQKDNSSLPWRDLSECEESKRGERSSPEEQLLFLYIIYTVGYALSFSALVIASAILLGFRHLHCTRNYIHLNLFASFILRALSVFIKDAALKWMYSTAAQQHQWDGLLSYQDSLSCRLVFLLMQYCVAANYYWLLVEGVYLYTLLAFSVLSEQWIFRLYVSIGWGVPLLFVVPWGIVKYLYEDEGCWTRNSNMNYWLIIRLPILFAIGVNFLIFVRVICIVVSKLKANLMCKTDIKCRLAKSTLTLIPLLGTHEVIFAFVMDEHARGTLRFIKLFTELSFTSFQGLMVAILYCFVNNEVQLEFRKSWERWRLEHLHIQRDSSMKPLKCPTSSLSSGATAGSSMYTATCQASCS
Procedure, shortened: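 Seeding at 200 cells/uL, 12 h culture, 24 hr compound treatment, then luciferase reagent and a luminescence read; cells are HEK293 stably expressing a constitutively active GLP-1R plus cAMP-responsive luciferase.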
Further: nearly all actives have a fitted effect of over 55% in size.
Potency means the concentration at half of the fitted maximal effect; tags describe the fitted curve by direction and shape.

| Structure (SMILES) | Potency |
| --- | --- |
| COc1ccc(CCNC(=O)C2CCN(Cc3nc(-c4cccc(Cl)c4)oc3C)CC2)cc1OC | inconclusive [inhibitor, partial curve, poor fit] |
| Cc1nnnn1/C(=C\c1ccccc1)C(=O)OCC(=O)NC1CCCCC1 | inconclusive [inhibitor, partial curve, poor fit] |
| CCc1cccc(CC)c1NC(=O)CO/N=C(\N)CC(=O)NC1CCCCC1 | inactive |
| CCC(C)(C)NC(=O)C(c1ccc(C)cc1)N(CC1CCCO1)C(=O)CNC(=O)c1cccs1 (stereo not drawn) | inconclusive [inhibitor, partial curve, poor fit] |
| COc1cc(NC(=O)CNC(c2ccccc2)c2ccccc2)cc(OC)c1OC | inconclusive [inhibitor, single point] |
| COc1cc(OC)c(CN2CCC(Cc3ccccc3)CC2)cc1Br | inconclusive [inhibitor, single point] |
| COc1ccc(NC2=C(C(C)=O)C(c3ccc4c(c3)OCO4)C(C(C)=O)C(C)(O)C2)cc1 (stereo not drawn) | inconclusive [inhibitor, single point] |
| CCc1ccc(NCc2cc3ccc(OC)cc3n(CC(=O)Nc3ccccc3OC)c2=O)cc1 | inconclusive [inhibitor, partial curve, poor fit] |
| CCOc1ccc(N(CC)C(=O)c2cc3c(s2)-c2ccc(Cl)cc2SC3)cc1 | inactive |
| Cc1ccc(CN2CCN(Cc3ccccc3-c3ccco3)CC2CCO)o1 (stereo not drawn) | inconclusive [inhibitor, single point] |
| Cc1ccn2c(Nc3ccc4c(c3)OCO4)c(-c3ccc(C)o3)nc2c1 | inconclusive [inhibitor, single point] |
| O=C(O)c1ccc(/C=N/NC(=S)NC2CCCCC2)cc1 | inactive |
| C=CCC1(CC=C)CCCN1C(=O)c1ccc2oc(CCCC)nc2c1 | inconclusive [inhibitor, partial curve, poor fit] |
| CCn1cc(CN2CCc3c([nH]c4ccccc34)C2c2ccc(F)c(OC)c2)c(C)n1 (stereo not drawn) | inconclusive [inhibitor, partial curve] |
| O=S(=O)(Nc1ccc(S(=O)(=O)N2CCCCC2)cc1)c1ccc(Br)s1 | inconclusive [inhibitor, partial curve, poor fit] |
| CC1NC(=O)c2cc3ccccc3cc2-n2c1nc1cc(Cl)ccc1c2=O (stereo not drawn) | inactive |
| Cc1ccc(NC(=O)CCn2nc(-c3ccccc3)c3ccccc3c2=O)c(C)c1 | inactive |
| COc1ccc(Nc2ccc3ccccc3c2)cc1 | inconclusive [inhibitor, single point] |
